About 4,000 (4.3%) of roughly 94,000 compounds were called active. Inconclusive means that the source gave no clear call. Such entries were picked first, then a sample of the others. The call rests on the fitted dose curve; in most records, active means well fitted inhibition curve with a large enough effect; inconclusive means small, poorly fitted or top-dose-only effect; inactive means no such curve, though single readings can be large or run the other way. Potencies beside an inconclusive call are fits to weak or partial responses and may not hold up.
Test: Cytotoxic Profiling in NIH 3T3 Cell Line of Diverse Libraries Using Quantitative High-Throughput Screening; further: nearly all actives have a fitted effect of over 55% in size
Conditions: NIH 3T3 viability, CellTiter-Glo ATP luminescence, 48-72 h; activity change, negative = cytotoxicity: at 96.7 µM (top of the series) unless noted; series mostly up to 96.7 µM
Method in brief: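 Cytotoxicity was measured by CellTiter-Glo ATP luminescence after 48 or 72 h compound exposure at 37 °C. Mouse NIH 3T3 fibroblasts were seeded at 400 cells/well and dosed by 23 nL pin transfer.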
On the % scale 0 is the no-effect control and ±100 the full control effect; potency means the concentration at half of the fitted maximal effect; tags describe the fitted curve by direction and shape.

SMILES	Potency	activity change, negative = cytotoxicity	outcome
CNC(=O)C1CCN(c2nccc(Nc3ccc(OC)cc3)n2)CC1	inconclusive: 89.1 µM [inhibitor, partial curve, poor fit]		
COc1ccccc1-n1c(=O)c(C(=O)NCc2cccc(F)c2)nc2cccnc21		inactive: -0.739%	
Cn1ccnc1CN1CCN(c2nccc(-c3ccccn3)n2)CC1		inactive: -3.72%	
Cc1cc(C)c(S(=O)(=O)c2nnn3c2nc(NC2CCCC2)c2ccccc23)c(C)c1		inactive: -21.6%	
Cc1ccc(CN2Cc3[nH]cnc3C[C@H]2C(=O)NCc2ccc(C(F)(F)F)cc2)cc1	active: 100 µM		
COC(=O)c1cccc(NC(=O)c2ccc3c(c2)N(C)C2CCCCN2C3=O)c1 (stereo not drawn)	inconclusive: 44.7 µM [inhibitor, partial curve, poor fit]		
O=C(NCc1ccccc1F)c1ccc2c(c1)CN(Cc1ccncc1)CCO2		inactive: -36.3%	
Cc1nc(-c2c3n(c(=O)n(CCOc4ccccc4)c2=O)CCCCC3)no1	inconclusive: 63.1 µM [inhibitor, partial curve, poor fit]		
O=C(NCc1csc(-c2cnccn2)n1)C1NCCc2[nH]cnc21 (stereo not drawn)		inactive: -1.92%	
c1ccc(O[C@H]2COCCN(Cc3ccc(-c4ccccc4)cc3)C2)cc1	inconclusive: 89.1 µM [inhibitor, partial curve, poor fit]		
COC1CCN(c2ccc3nnc(-c4ccccn4)n3n2)CC1	active: 50.1 µM		
Cc1nc(N2CCC(NC(=O)c3ccc[nH]3)CC2)cc(C(F)(F)F)n1		inactive: -9.95%	
Cc1ccccc1Cn1cc(-c2ccncc2)cc1C(=O)N1CCCC(C)C1 (stereo not drawn)	inconclusive: 50.1 µM [inhibitor, partial curve, poor fit]		
CCCC(=O)N1Cc2ccccc2CC2(CCN(C)C2)C1 (stereo not drawn)		inactive: -14.3% [at 138 µM]	
O=C1CCN(S(=O)(=O)c2ccccc2)CCCN(S(=O)(=O)c2ccc3c(c2)CCC3)CCN1	inconclusive: 44.7 µM [inhibitor, partial curve, poor fit]		
Cc1ccc(CC(=O)N2CCC(c3n[nH]c(=O)n3Cc3ccc(F)cc3)CC2)cc1	inconclusive: 44.7 µM [inhibitor, partial curve, poor fit]		
COc1ccc(-c2cc(N3CCN(C(=O)c4cccc(OC)c4)CC3)n[nH]2)cc1	inconclusive: 39.8 µM [inhibitor, partial curve, poor fit]		
O=C(C1CC(=O)N(c2n[nH]c3cccc(F)c23)C1)N1CCC(Cc2ccccc2)CC1 (stereo not drawn)	inconclusive: 44.7 µM [inhibitor, partial curve, poor fit]		
Cc1nn(-c2ccccc2)c(Oc2ccc(F)cc2F)c1CCC(=O)NCC1CC1	inconclusive: 44.7 µM [inhibitor, partial curve, poor fit]		
Cc1cc(=O)n(CC(=O)Nc2ccc(Cl)cc2F)c(N(C)Cc2ccccc2)n1		inactive: -33%	
CC(C)CNC(=O)c1ccc2c(c1)NC(C)(COCC1CC1)CO2 (stereo not drawn)	inconclusive: 89.1 µM [inhibitor, partial curve]		
COc1ccc(NC(=O)c2cnc3n2CCN(Cc2ccccc2)CC3)cc1	inconclusive: 89.1 µM [inhibitor, partial curve]		
O=C(Cn1ccn2nc(-c3ccccc3)c(CO)c2c1=O)N1CCC(Cc2ccccc2)CC1	inconclusive: 63.1 µM [inhibitor, single point]		

SMILES	Potency	activity change, negative = cytotoxicity	outcome
Cc1cc(=O)n(CC(=O)Nc2ccc(F)cc2)c(-c2ccccc2)n1	inconclusive: 50.1 µM [inhibitor, partial curve, poor fit]		
Cc1ccc(C(=O)N2CCC(Cc3nc(C(C)C)no3)CC2)cc1C	active: 44.7 µM		
O=C(O)c1ccc(CN2CCC[C@H]2c2nc(-c3ccc(OC4CCCCC4)nc3)no2)cc1			inactive
CN1c2cc(C(=O)NC3CCCCC3)ccc2C(=O)N2CCCCCC21 (stereo not drawn)		inactive: -11.2%	
O=C(c1cccs1)N1CCC(Oc2ccccc2)C1 (stereo not drawn)		inactive: -15.8%	
O=C1Nc2ccccc2CC12CCN2Cc1ccc(OC(F)(F)F)cc1 (stereo not drawn)	inconclusive: 50.1 µM [inhibitor, partial curve, poor fit]		
CCOC(=O)[C@@H]1CN(C(=O)OCC(C)C)[C@H]2c3ccccc3O[C@@H]12	inconclusive: 50.1 µM [inhibitor, partial curve, poor fit]		
COc1ccc(CNC(=O)C2CCCN(c3nccc(Nc4ccc(OC)cc4)n3)C2)cc1 (stereo not drawn)	inconclusive: 20 µM [inhibitor, full curve, poor fit]		
O=C1NCCCCCCN(Cc2ccncc2)[C@@H]2CN(C(=O)c3ccncc3)CC[C@@H]12		inactive: -14.2%	
O=C(NCc1c[nH]c2ncccc12)c1ccc(F)cc1	inconclusive: 112 µM [inhibitor, partial curve, poor fit]		
CCNc1ccnc(NC2CCCc3c2cnn3-c2ccc(C)c(C)c2)n1 (stereo not drawn)	active: 28.2 µM		
CN(C)Cc1ccc(-c2cc(-c3ccncc3)c3cncn3c2)cc1	inconclusive: 31.6 µM [inhibitor, full curve]		
COCc1cn(C[C@H]2C[C@@H](NC(C)=O)[C@H](O)[C@@H]2O)nn1		inactive: -1.74% [at 174 µM]	
CSCCCN1CCC2(CCN(Cc3cccc(O)c3)CC2)C(CO)C1 (stereo not drawn)	inconclusive: 79.4 µM [inhibitor, partial curve, poor fit]		
COc1cccc(NC(=O)c2ccc3c(c2)NC(C)(CNc2ccccc2)CO3)c1 (stereo not drawn)	active: 28.2 µM		
O=C(CCC1CCCC1)N1CCC(Cc2nc(C3CC3)n[nH]2)CC1		inactive: -28.2%	
Cc1cccc(-c2ccc3c(c2)C(=O)N2CC[C@H](NC(=O)c4cccs4)[C@H]2C(=O)N3)c1C	inconclusive: 100 µM [inhibitor, single point]		
CC(=O)N1CCCN(C(=O)CC(c2cccc(O)c2)c2cccc(Cl)c2)CC1 (stereo not drawn)		inactive: -2.16%	
CN1CCC(NC(=O)c2ccc3c(c2)n(Cc2ccc(F)cc2)c(=O)c2ccnn23)CC1	active: 22.4 µM		
Cc1ccc(CNC(=O)C2CCc3nc(N4CCN(C(=O)C(C)C)CC4)sc3C2)o1 (stereo not drawn)		inactive: -17%	
CC(C)CCNC(=O)c1cnc2n1CCN(Cc1ccccc1Cl)CC2	inconclusive: 89.1 µM [inhibitor, partial curve]		
Cc1ccccc1NC(=O)N1CCC(CCNC(=O)C2(c3ccccc3)CC2)CC1		inactive: -19.8%	
Cc1cnc(C(=O)N[C@@H]2CCC[C@@H]2C(=O)NCc2ccc(Cl)cc2)cn1		inactive: -15%	

SMILES	Potency	activity change, negative = cytotoxicity	outcome
CCCC1c2nccn2CCCN1C(=O)c1cn2ccccc2n1 (stereo not drawn)		inactive: -5.61%	
COc1cccc(CN2CCOc3ccc(C(=O)NCc4ccc(C)cc4)cc3C2)n1	inconclusive: 50.1 µM [inhibitor, partial curve, poor fit]		
Cn1cc(CN2CC[C@H](c3nc4ccccc4[nH]3)C2)c2ccccc21	inconclusive: 63.1 µM [inhibitor, full curve, poor fit]		
COc1ccc(-c2nc(C3CC(=O)N(c4ccc(F)cc4)C3)no2)c(OC)c1 (stereo not drawn)	inconclusive: 50.1 µM [inhibitor, partial curve, poor fit]		
Cc1ccc(NC(=O)c2cc3n(n2)CC(c2ccc4c(c2)OCO4)OC3)cc1Cl (stereo not drawn)	inconclusive: 31.6 µM [inhibitor, full curve]		
O=C(O)CCn1ncc2cc(OCc3ccc(-c4cccc(CO)c4)cc3)ccc21	inconclusive: 50.1 µM [inhibitor, partial curve]		
COc1cccc(C(O)c2nc(C(=O)Nc3ccc4c(c3)NC(=O)CO4)c(C)o2)c1 (stereo not drawn)	inconclusive: 89.1 µM [inhibitor, partial curve]		
COc1ccc(-c2nnc3n2CCN(C(=O)Cc2ccc(F)cc2)C3)cc1		inactive: -17.1%	
Cn1cc(CN2C[C@H](C(=O)Nc3nccs3)C[C@@H]2c2cccc(C(F)(F)F)c2)cn1	inconclusive: 56.2 µM [inhibitor, partial curve, poor fit]		
CN(C)c1ccc2ncc(Nc3ccc(Oc4ccccc4)cc3)n2n1	active: 25.1 µM		
c1cncc(-c2noc(C3CCCN(Cc4cc5n(n4)CCNC5)C3)n2)c1 (stereo not drawn)		inactive: 1.2%	
CNC(=O)c1cc2cc(-c3c(C)noc3C)nc(-c3ccccc3OC)c2o1	inconclusive: 25.1 µM [inhibitor, full curve]		
Cc1noc2ncnc(N3CCN(Cc4ccc(F)c(F)c4)C(CCO)C3)c12 (stereo not drawn)	inconclusive: 44.7 µM [inhibitor, partial curve]		
CCNC(=O)N1CCOc2ccc(CCC(=O)Nc3ccc(C)cc3)cc2C1	inconclusive: 39.8 µM [inhibitor, partial curve]		
COCCOCc1nc(C2CCN(C(=O)NC(C)C)CC2)no1			inactive
COc1ccccc1C(=O)N1CCC2(CC1)OC(=O)N(CCOc1ccccc1)C2(C)c1cccnc1 (stereo not drawn)	inconclusive: 12.6 µM [inhibitor, partial curve, poor fit]		
CCNC(=O)c1coc(COc2ccc3c(c2)C(c2cccc(F)c2)N(C(=O)C(C)(C)C)CC3)n1 (stereo not drawn)	inconclusive: 44.7 µM [inhibitor, partial curve, poor fit]		
Cc1nc(CN2C(=O)OC3(CCN(CCc4ccccc4)CC3)C2(C)c2ccccc2)cs1 (stereo not drawn)		inactive: -22.4%	
COc1cc(C(=O)N2CCN(c3cc(-c4cccs4)[nH]n3)CC2)cc(OC)c1OC	inconclusive: 44.7 µM [inhibitor, partial curve, poor fit]		
CCOC(=O)[C@@H]1CN(C(=O)OCc2ccccc2)[C@H]2c3ccc(OC)cc3O[C@@H]12	inconclusive: 44.7 µM [inhibitor, partial curve, poor fit]		
COc1ccc(-n2c(=O)c(C(=O)NC3CCCCC3)nc3cccnc32)cc1		inactive: -15.6%	
O=C(CN1CCCCCC1)N1CC(Oc2ccccc2-c2nc(C3CC3)no2)C1		inactive: -29%	
